Drawing on publication PMC5432255, this text covers binding for 2 substances.

The chains behind the UniProt entries cited, without tags or fusion partners.
UniProt Q15554: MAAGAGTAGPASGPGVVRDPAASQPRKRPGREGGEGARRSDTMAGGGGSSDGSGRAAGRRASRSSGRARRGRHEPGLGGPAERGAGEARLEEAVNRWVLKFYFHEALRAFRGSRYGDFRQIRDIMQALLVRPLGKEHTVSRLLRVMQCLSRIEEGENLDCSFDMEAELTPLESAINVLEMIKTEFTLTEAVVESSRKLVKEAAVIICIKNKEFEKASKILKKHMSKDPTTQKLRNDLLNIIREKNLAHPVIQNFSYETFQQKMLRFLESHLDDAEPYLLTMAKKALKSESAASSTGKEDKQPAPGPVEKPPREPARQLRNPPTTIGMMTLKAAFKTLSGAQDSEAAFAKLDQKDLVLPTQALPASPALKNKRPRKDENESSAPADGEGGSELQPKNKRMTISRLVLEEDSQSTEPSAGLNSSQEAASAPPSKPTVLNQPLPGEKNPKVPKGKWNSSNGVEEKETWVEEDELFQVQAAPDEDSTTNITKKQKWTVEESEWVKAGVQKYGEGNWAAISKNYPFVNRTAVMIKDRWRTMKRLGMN
UniProt P54274: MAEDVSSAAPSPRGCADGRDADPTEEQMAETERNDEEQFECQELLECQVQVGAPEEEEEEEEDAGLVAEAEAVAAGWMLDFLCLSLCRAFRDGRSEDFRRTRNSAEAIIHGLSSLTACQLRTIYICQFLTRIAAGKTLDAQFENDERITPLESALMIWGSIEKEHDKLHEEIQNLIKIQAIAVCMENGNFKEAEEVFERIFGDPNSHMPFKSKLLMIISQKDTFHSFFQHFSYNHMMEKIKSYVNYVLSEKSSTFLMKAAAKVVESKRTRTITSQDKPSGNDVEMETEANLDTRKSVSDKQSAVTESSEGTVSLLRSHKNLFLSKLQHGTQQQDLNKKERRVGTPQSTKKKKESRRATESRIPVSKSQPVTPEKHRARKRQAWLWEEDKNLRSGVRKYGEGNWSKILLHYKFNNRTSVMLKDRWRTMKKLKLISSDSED
UniProt Q09472: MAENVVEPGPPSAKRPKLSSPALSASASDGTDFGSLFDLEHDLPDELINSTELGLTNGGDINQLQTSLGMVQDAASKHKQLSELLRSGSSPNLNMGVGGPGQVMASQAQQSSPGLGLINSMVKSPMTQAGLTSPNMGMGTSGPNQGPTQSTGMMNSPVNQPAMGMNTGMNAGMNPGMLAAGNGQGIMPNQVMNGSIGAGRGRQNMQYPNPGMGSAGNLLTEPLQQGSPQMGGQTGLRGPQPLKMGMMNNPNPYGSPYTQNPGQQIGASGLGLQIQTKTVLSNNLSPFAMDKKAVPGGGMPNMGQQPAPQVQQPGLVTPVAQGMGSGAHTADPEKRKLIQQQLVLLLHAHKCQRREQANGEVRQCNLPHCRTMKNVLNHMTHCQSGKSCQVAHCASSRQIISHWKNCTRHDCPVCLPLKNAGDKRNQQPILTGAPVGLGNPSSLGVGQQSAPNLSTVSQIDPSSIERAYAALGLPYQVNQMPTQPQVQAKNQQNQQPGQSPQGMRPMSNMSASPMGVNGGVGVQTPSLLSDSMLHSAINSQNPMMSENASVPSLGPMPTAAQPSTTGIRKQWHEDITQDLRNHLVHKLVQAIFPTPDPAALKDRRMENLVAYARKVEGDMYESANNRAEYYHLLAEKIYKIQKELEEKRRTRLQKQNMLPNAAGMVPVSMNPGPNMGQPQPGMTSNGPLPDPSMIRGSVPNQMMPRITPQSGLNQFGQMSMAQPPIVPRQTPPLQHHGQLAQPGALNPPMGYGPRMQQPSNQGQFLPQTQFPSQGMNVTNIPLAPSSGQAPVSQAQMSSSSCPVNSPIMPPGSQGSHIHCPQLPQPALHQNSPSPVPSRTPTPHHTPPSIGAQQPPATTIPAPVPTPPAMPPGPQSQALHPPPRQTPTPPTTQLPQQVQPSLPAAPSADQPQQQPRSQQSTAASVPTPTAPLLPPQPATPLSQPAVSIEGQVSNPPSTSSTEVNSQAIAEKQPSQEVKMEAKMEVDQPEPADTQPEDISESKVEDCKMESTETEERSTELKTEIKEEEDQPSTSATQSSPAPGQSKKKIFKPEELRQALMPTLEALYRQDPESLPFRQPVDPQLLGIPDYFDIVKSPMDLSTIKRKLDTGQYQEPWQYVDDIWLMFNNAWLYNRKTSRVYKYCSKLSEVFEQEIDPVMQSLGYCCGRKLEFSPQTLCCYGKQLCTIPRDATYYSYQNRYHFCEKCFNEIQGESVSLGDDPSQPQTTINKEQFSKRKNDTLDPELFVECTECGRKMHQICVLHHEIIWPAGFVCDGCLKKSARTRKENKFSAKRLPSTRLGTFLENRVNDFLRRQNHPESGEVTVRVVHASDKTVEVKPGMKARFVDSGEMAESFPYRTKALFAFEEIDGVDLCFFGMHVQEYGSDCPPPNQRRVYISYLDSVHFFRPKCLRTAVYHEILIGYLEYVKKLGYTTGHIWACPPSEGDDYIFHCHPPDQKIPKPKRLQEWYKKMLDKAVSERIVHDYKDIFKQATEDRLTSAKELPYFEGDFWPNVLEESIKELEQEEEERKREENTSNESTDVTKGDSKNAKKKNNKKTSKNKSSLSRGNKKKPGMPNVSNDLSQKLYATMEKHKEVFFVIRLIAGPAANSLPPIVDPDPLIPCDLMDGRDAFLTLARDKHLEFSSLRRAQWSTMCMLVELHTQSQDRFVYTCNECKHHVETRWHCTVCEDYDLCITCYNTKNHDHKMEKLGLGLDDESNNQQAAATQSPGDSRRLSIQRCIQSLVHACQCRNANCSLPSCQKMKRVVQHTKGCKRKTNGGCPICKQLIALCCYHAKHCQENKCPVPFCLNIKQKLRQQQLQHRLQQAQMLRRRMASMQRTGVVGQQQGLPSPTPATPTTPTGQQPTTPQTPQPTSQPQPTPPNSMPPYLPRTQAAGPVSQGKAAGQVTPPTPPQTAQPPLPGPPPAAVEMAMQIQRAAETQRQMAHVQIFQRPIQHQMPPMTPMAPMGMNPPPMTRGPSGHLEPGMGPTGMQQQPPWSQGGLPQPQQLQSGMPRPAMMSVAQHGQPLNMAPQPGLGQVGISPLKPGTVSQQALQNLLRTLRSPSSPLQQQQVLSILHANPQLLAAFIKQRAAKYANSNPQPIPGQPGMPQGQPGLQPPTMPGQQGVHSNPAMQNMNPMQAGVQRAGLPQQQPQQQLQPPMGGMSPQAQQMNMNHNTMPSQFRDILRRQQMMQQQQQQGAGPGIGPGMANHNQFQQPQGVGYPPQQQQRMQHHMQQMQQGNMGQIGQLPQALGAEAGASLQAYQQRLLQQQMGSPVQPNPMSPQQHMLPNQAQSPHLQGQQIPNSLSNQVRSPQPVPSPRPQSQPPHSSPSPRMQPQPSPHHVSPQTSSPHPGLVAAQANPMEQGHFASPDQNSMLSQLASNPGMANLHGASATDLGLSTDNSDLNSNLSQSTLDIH
UniProt Q92830: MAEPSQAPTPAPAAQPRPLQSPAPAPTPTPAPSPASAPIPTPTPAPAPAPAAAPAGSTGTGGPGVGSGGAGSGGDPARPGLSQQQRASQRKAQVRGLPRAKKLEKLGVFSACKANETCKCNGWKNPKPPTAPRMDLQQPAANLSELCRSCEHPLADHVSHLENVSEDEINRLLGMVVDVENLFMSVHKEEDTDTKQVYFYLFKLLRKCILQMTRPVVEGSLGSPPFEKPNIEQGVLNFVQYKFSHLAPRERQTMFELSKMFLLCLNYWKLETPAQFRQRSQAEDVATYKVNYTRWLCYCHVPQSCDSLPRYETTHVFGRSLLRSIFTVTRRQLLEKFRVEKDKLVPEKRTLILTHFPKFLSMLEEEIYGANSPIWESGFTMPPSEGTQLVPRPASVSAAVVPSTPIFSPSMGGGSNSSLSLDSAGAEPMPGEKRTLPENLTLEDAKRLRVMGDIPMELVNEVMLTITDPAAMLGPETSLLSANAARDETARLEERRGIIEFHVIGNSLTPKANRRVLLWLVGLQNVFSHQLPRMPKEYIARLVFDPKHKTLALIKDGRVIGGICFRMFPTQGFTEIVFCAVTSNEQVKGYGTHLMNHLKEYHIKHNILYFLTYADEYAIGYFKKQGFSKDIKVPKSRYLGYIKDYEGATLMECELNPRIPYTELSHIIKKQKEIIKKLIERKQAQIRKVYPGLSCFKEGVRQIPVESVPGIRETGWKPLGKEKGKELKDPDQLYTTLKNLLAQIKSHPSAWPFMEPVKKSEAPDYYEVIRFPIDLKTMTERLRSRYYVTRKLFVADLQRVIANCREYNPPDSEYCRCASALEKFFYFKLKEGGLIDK
UniProt Q92831: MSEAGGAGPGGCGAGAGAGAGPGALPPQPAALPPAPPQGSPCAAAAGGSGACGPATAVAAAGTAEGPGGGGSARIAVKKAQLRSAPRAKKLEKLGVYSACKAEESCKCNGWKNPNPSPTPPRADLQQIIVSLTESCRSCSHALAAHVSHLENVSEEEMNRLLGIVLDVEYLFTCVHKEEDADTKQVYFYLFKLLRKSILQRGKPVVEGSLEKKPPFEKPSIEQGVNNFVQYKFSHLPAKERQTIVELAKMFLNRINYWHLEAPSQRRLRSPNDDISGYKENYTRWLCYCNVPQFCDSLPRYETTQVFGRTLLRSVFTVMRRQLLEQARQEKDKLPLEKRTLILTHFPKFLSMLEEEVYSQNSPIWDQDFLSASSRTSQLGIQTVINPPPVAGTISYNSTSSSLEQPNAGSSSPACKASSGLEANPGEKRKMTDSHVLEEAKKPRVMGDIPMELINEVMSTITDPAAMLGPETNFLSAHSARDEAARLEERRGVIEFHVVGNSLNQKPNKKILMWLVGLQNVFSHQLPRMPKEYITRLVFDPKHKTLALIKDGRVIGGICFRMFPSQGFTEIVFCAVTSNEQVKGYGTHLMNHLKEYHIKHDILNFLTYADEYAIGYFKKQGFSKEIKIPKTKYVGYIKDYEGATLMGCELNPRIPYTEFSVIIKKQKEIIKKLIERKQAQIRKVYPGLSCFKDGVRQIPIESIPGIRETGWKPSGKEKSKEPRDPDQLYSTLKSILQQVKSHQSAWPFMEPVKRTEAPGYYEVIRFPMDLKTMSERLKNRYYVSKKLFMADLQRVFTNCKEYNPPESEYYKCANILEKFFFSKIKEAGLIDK

These are yes or no findings as the source states them, for the method shown. In cells and extracts the contact can be indirect. Some results given as binding are weak or reduced against the parent protein; the word gives no strength.

Experiment in all cases: proximity ligation; in situ PLA (Duolink II) on fixed, permeabilised telomerase-positive (TG1N, HeLa) and ALT (SAOS-2, TG20) cells with two primary antibodies against the endogenous proteins; for the TRF1 pairs cells treated or not with the proteasome inhibitor MG132 1.5 h before fixation
For experiment [1], the target named is TRF2 (human (endogenous in TG1N, HeLa, SAOS-2, TG20)) (UniProt Q15554).
The target in experiment [2] is TRF1 (human (endogenous in TG1N, HeLa, SAOS-2, TG20)) (UniProt P54274).
For experiment [3], the target named is P300 (human (endogenous in TG1N, HeLa, SAOS-2, TG20)) (UniProt Q09472).

With “General control non-derepressible 5 (GCN5) (from UniProt Q92830 1-837)”, the binding result in experiment [1] and in experiment [2] was “binds” each time.

In the case of “P300/CBP-associated factor (PCAF) (from UniProt Q92831 1-832)”, the binding entry is “no binding” in experiment [1], “no binding” in experiment [2] and “binds” in experiment [3].
